# According to PubChem BioAssay (NCATS):
# Values joined by “and” are separate entries in the source; they are usually repeats but may differ in a detail not shown here. Equal values may be shown once. Inconclusive means that the source gave no clear call. Such entries were picked first, then a sample of the others. For some assays here: Where the call is inconclusive, the potency comes from a doubtful curve fit. Active and inactive are the calls of the source. Calls follow the shape of the dose curve; as a rule, active = well fitted curve in the direction sought with a large enough effect; inconclusive = small, poorly fitted or top-dose-only effect, or another doubt; inactive = no such curve, though single readings can be large; an effect the other way counts as inactive or inconclusive. Where a SMILES comes first, the peptide text is derived from it. [ ]: non-standard residue; d: D form. Orn = NCCC[C@H](N)C(=O)O
# Key:
# NIH3T3 = assay: Cytotoxic Profiling of Annotated Libraries Using Quantitative High-Throughput Screening (AID 1296008); conditions: Five cell lines viability, CellTiter-Glo ATP luminescence, 48-72 h; max response: hits give low values; also: nearly all actives have a fitted effect of over 60% in size; as to max response: % is scaled to controls: 0 for no effect and ±100 for the full control effect
# How it was run: (§1)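 Cytotoxicity was measured as CellTiter-Glo ATP luminescence, read after 10 min at room temperature. Compound treatment of the cells lasted 48 or 72 hr at 37 degrees Celsius in a qHTS format.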
# MCC-13 = assay: qHTS assay to identify novel small-molecules to repurpose for Merkel cell carcinoma treatment (AID 1296009); conditions: MCC and control cell lines, CellTiter-Glo viability, 72 h; series mostly up to 46 µM; also: nearly all actives have a fitted effect of over 60% in size
# How it was run: (§2)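 After compound transfer in DMSO, plates were kept 72 hr at 37 degree celsius. Luminescent ATP signal from CellTiter-Glo served as viability measure, normalized against DMSO and no-cell controls.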
# MCC-26 = assay: as above; conditions: MCC and control cell lines, CellTiter-Glo viability, 72 h; series mostly up to 46 µM
# How it was run: as §2
# MKL-1 = assay: as above; conditions: MCC and control cell lines, CellTiter-Glo viability, 72 h; series mostly up to 46 µM
# How it was run: as §2
# MKL-2 = assay: as above; conditions: MCC and control cell lines, CellTiter-Glo viability, 72 h; series mostly up to 46 µM
# How it was run: as §2
# UISO = assay: as above; conditions: MCC and control cell lines, CellTiter-Glo viability, 72 h; series mostly up to 46 µM
# How it was run: as §2
# WaGa = assay: as above; conditions: MCC and control cell lines, CellTiter-Glo viability, 72 h; series mostly up to 46 µM
# How it was run: as §2
# astro = assay: Drug repurposing screens with cells derived from glioblastoma tumor samples (AID 1345199); conditions: viability, ATP luminescence, 48 h; activity, negative = cell killing: at 45.9 µM (top of the series); also: nearly all actives have a fitted effect of over 40% in size; as to activity, negative = cell killing: % is scaled to controls: 0 for no effect and ±100 for the full control effect
# How it was run: (§3)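 Four patient lines of CD133+ GBM neurospheres were screened at several concentrations; hits were retested in those lines plus three slower-growing GBM lines, using 48-hour treatment and ATP-based viability.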
# [1] = qHTS assay to identify inhibitors of the type 1 interferon - major histocompatibility complex class I in skeletal muscle: Counter screen cell viability and HiBit confirmation (AID 1347412); conditions: iHSKM muscle cells + IFN-b, HiBiT or CellTiter-Glo, 24 h; also: nearly all actives have a fitted effect of over 60% in size
# How it was run: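 Luminescence read-out: Nano-Glo HiBiT lytic signal from C-terminally HiBiT-tagged HLA-B in CRISPR-edited human myoblasts, plus CellTiter Glo ATP as viability counter screen. IFN-beta 4.0 ng/ml; 24 hrs treatment at 37 C, 5% CO2.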
# [2] = Drug repurposing screens with cells derived from glioblastoma tumor samples (AID 1345199); conditions: GBM patient neurospheres viability, ATP luminescence, 48 h; Potency: tumour line A unless noted; activity, negative = cell killing: at 46 µM (top of the series), tumour line A unless noted; also: nearly all actives have a fitted effect of over 40% in size; as to activity, negative = cell killing: % is scaled to controls: 0 for no effect and ±100 for the full control effect
# How it was run: as §3
# W2 = assay: qHTS profiling for inhibitors of Plasmodium falciparum proliferation (AID 504749); also: nearly all actives have a fitted effect of over 60% in size; conditions: P. falciparum in erythrocytes, SYBR Green DNA, 72 h; series mostly up to 28.7 µM
# How it was run: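 Three-day growth assay of blood-stage parasites in erythrocytes (0.3% parasitemia, 2.5% hematocrit) at 37 C, 5% CO2, quantified by SYBR Green DNA staining after overnight detergent lysis.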
# Es-2 = assay: Primary qHTS to identify gynecologic anti-cancer compounds using libraries of approved drugs and bioactive compounds (AID 1345084); conditions: Gynecologic cancer cell panel viability, ATPlite luminescence, 48 h; series mostly up to 57.5 µM; also: nearly all actives have a fitted effect of over 55% in size
# How it was run: (§4)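 Cytotoxicity screen measuring ATP content by luciferase luminescence. Each compound is applied at five concentrations for 48 h at 37 C with 5% CO2.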
# KB-3-1 = assay: Cytotoxic Profiling of Annotated Libraries Using Quantitative High-Throughput Screening (AID 1296008); conditions: Five cell lines viability, CellTiter-Glo ATP luminescence, 48-72 h; max response: hits give low values; also: nearly all actives have a fitted effect of over 60% in size; as to max response: % is scaled to controls: 0 for no effect and ±100 for the full control effect
# How it was run: as §1
# CAOV3 = assay: Primary qHTS to identify gynecologic anti-cancer compounds using libraries of approved drugs and bioactive compounds (AID 1345084); conditions: Gynecologic cancer cell panel viability, ATPlite luminescence, 48 h; series mostly up to 57.5 µM; also: nearly all actives have a fitted effect of over 55% in size
# How it was run: as §4
# C33A = assay: as above; conditions: Gynecologic cancer cell panel viability, ATPlite luminescence, 48 h; series mostly up to 57.5 µM
# How it was run: as §4
# Potency is read from the fitted curve at half-maximal effect; tags tell the direction and shape of the fitted curve.
smiles,measurement,setting,value
CN[C@H]1CCc2cc(OC)c(OC)c(OC)c2-c2ccc(OC)c(=O)cc21,Potency,NIH3T3,"inconclusive: 0.0059 µM [inhibitor, full curve]"
same,Potency,MCC-13,active: 0.0209 µM
same,Potency,MCC-26,"inconclusive: 0.0187 µM [inhibitor, full curve]"
same,Potency,MKL-1,"inconclusive: 0.0047 µM [inhibitor, full curve]"
same,Potency,MKL-2,"inconclusive: 0.0296 µM [inhibitor, full curve, poor fit]"
same,Potency,UISO,"inconclusive: 0.0132 µM [inhibitor, full curve]"
same,Potency,WaGa,"inconclusive: 0.0074 µM [inhibitor, full curve]"
same,Potency,astro,"inconclusive: 0.1 µM [inhibitor, full curve]"
same,Potency,[1]; HiBiT,"inconclusive: 0.198 µM [inhibitor, full curve]"
same,Potency,[1]; Viability,"inconclusive: 0.394 µM [cytotoxic, full curve]"
C[C@H](Cn1cnc2c(N)ncnc21)OCP(=O)(O)O,outcome,NIH3T3,inactive
same,Potency,MKL-1,inactive
same,Potency,[2],inactive
Oc1c(I)cc(I)c2cccnc12,Potency,W2,"inconclusive: 16.9 µM [inhibitor, single point]"
same,Potency,NIH3T3,"inconclusive: 29.9 µM [inhibitor, partial curve, poor fit]"
same,Potency,MCC-13,inactive
same,Potency,UISO,"inconclusive: 33.5 µM [inhibitor, single point]"
same,Potency,WaGa,"inconclusive: 23.7 µM [inhibitor, partial curve]"
same,Potency,astro,"inconclusive: 3.16 µM [inhibitor, full curve]"
same,Potency,Es-2,"inconclusive: 39.8 µM [cytotoxic, single point]"
O=C(O)CNC(=O)c1ccccc1,outcome,NIH3T3,inactive
CC(C[N+](C)(C)C)OC(N)=O (stereo not drawn),Potency,W2,inactive
same,Potency,NIH3T3,"inconclusive: 37.2 µM [inhibitor, single point]"
same,Potency,WaGa,inactive
COc1cc(NS(C)(=O)=O)ccc1Nc1c2ccccc2nc2ccccc12,Potency,KB-3-1,"inconclusive: 29.1 µM [inhibitor, single point]"
same,Potency,astro,active: 11.2 µM
COc1cc(N2CCC(C(N)=O)CC2)ccc1Nc1nc(N)c(Cl)c(Nc2ccccc2S(=O)(=O)C(C)C)n1,Potency,NIH3T3,active: 3.72 µM
same,Potency,MCC-26,"inconclusive: 13.2 µM [inhibitor, partial curve]"
same,Potency,MKL-1,"inconclusive: 20.9 µM [inhibitor, partial curve]"
same,Potency,MKL-2,"inconclusive: 8.33 µM [inhibitor, full curve, poor fit]"
same,Potency,WaGa,active: 16.6 µM
CC(C)N(CC[C@H](c1ccccc1)c1cc(CO)ccc1O)C(C)C,Potency,MCC-13,inactive
CCCC(=O)O[C@]1(C(=O)CCl)[C@H](C)C[C@@H]2[C@H]3CCC4=CC(=O)C=C[C@]4(C)[C@@]3(F)C(=O)C[C@@]21C,Potency,KB-3-1,"inconclusive: 32.6 µM [inhibitor, single point]"
same,Potency,astro,"inconclusive: 35.5 µM [inhibitor, partial curve]"
C=C1C(=O)O[C@H]2[C@H]1CC/C(C)=C\CC[C@@]1(C)O[C@@H]21,Potency,KB-3-1,"inconclusive: 32.6 µM [inhibitor, single point]"
same,Potency,astro,active: 20 µM
CC(C)C[C@@H]1NC(=O)[C@H](CCCN)NC(=O)[C@H](C(C)C)NC(=O)[C@@H]2CCCN2C(=O)[C@@H](Cc2ccccc2)NC(=O)[C@H](CC(C)C)NC(=O)[C@H](CCCN)NC(=O)[C@H](C(C)C)NC(=O)[C@@H]2CCCN2C(=O)[C@@H](Cc2ccccc2)NC1=O (cyclo(V[Orn]L[dF]PV[Orn]L[dF]P)),Potency,KB-3-1,active: 0.82 µM
same,Potency,astro,active: 3.98 µM
COC(C(=O)C(O)C(C)O)C1Cc2cc3cc(OC4CC(OC5CC(O)C(O)C(C)O5)C(O)C(C)O4)c(C)c(O)c3c(O)c2C(=O)C1OC1CC(OC2CC(OC3CC(C)(O)C(O)C(C)O3)C(O)C(C)O2)C(O)C(C)O1 (stereo not drawn),Potency,KB-3-1,active: 1.46 µM
same,Potency,astro,active: 0.355 µM
CN(CC=CC#CC(C)(C)C)Cc1cccc2ccccc12,max response,NIH3T3,inactive: -1.72%
O=C(O)Cn1nnc(-c2cc(N3CCC(Oc4cc(F)ccc4Br)CC3)no2)n1,Potency,NIH3T3,"inconclusive: 6.62 µM [inhibitor, full curve] and inconclusive: 13 µM [inhibitor, partial curve, poor fit]"
same,Potency,MKL-2,inactive
same,Potency,UISO,inactive
same,Potency,CAOV3,"inconclusive: 0.891 µM [cytotoxic, full curve, poor fit]"
same,Potency,Es-2,"inconclusive: 15.8 µM [cytotoxic, partial curve]"
CCCC(=O)O[C@]1(C(=O)CO)CC[C@H]2[C@@H]3CCC4=CC(=O)CC[C@]4(C)[C@H]3[C@@H](O)C[C@@]21C,max response,NIH3T3,inactive: -4.28%
same,Potency,MKL-2,inactive
same,Potency,[1]; HiBiT,"inconclusive: 0.0557 µM [inhibitor, full curve, poor fit]"
same,Potency,CAOV3,active: 3.55 µM
C[C@]12C=CC(=O)C=C1CC[C@H]1[C@@H]3C[C@@H](O)[C@](O)(C(=O)CO)[C@@]3(C)C[C@H](O)[C@@]12F,outcome,NIH3T3,inactive
same,Potency,[1]; HiBiT,"inconclusive: 0.125 µM [inhibitor, full curve, poor fit]"
same,Potency,C33A,inactive
